Among all 75,000 compounds or so, about 20 (0.03%) were called active. Inconclusive results, whose numbers are uncertain, are shown with a selection of clear calls. The call rests on the fitted dose curve; in most records, active means well fitted inhibition curve with a large enough effect; inconclusive means small, poorly fitted or top-dose-only effect; inactive means flat fitted curve, though single readings scatter. Potencies of inconclusive entries are left out as doubtful fits.
Each molecule was assayed against Caspase-1 (Homo sapiens) (UniProt P29466) (assay: qHTS Assay for Allosteric/Competitive Inhibitors of Caspase-1). Details: Caspase-1 enzyme, Ac-WEHD-AFC fluorogenic rate; activity change, negative = inhibition: at 57.5 µM (top of the series) unless noted.
`O=C(N/N=C1/C[C@@H](O)[C@@H](O)[C@@H]2[C@@H]3C(=O)N(C[C@@H]4CCCO4)C(=O)[C@H]3CC[C@H]12)OCc1ccccc1` was tested, and the activity change, negative = inhibition was inactive: 1.71% [at 11.5 µM]. `CCc1ccc2[nH]c(=O)c(CN(Cc3ccc4c(c3)OCO4)Cc3nnnn3C3CCCC3)cc2c1` was tested, and the Potency was inconclusive [inhibitor, partial curve]. With `COc1ccc2c(c1)Cc1sc(NC(C)=O)nc1-2` the Potency was “inactive”. With `CCCS(=O)(=O)NCc1ccc2c(c1)cc(C)n2C` the activity change, negative = inhibition was inconclusive: -16.3% [inhibitor]. For `N#C[C@@H](Cc1ccc(O)c(O)c1)C(=O)N1CCc2ccccc21`, the Potency was “inactive”. In the case of `COC(=O)C1=C(C)[C@@H](O)[C@@H](C)[C@H](c2c(OC)c(OC)c(C)c(OC)c2OC)O1`, the Potency is reported as inconclusive [inhibitor, single point]. `COc1ccc(-c2cc(C(N)=O)nc(N3CCCCCC3)n2)cc1` was tested, and the Potency was “inactive”. For `CCc1ccc2nc(N3CCN(C)CC3)c(C#N)cc2c1`, the Potency was inconclusive [inhibitor, single point]. For `Cc1c[nH]c(=O)n(CCCN2CCN(c3ccccc3OCC(F)(F)F)CC2)c1=O`, the Potency was “inactive”. For `C=CCOC(=O)C1=C(C)NC(SCC(=O)NC(=O)OCC)=C(C#N)C1c1cccnc1` (stereo unspecified), the Potency was inconclusive [inhibitor, partial curve]. In the case of `Cc1ccccc1Cn1ccc(NC(=O)c2cc3nc(-c4ccco4)cc(C(F)(F)F)n3n2)n1`, the Potency is reported as inconclusive [inhibitor, full curve]. With `O=C(O)CSc1c2c(nc3cc(C(=O)N4CCOCC4)ccc13)CCCC2` the Potency was inconclusive [inhibitor, partial curve]. In the case of `COc1ccc(C(=O)CC(=O)O)c2c1C=CC(C)(C)O2`, the Potency is reported as inconclusive [inhibitor, partial curve]. `COc1ccccc1-n1nc(C(=O)Nc2ccc3c(c2)OCO3)c2ccccc2c1=O` was tested, and the Potency was “inactive”. `CCCn1c(SCC(=O)Nc2ccccc2N2CCCCC2)nc2c1c(=O)n(C)c(=O)n2C` was tested, and the Potency was “inactive”. `COCCn1c(=O)c(-c2cccc(C#N)c2)nc2cnc(Oc3cccc(Cl)c3)nc21` was tested, and the Potency was inconclusive [inhibitor, single point]. `CN(Cc1ccccc1)C(=O)CCC(=O)N(C)Cc1ccccc1` was tested, and the Potency was “inactive”. `O=C(NCc1ccco1)c1ccc(CS(=O)(=O)Cc2ccc(Cl)cc2)o1` was tested, and the Potency was “inactive”. With `COc1ccc(OC)c2[nH]c(=O)c(CCNC(=O)c3cc4ccccc4o3)cc12` the activity change, negative = inhibition was inconclusive: -17% [inhibitor]. `Nc1c(C(=O)c2ccc(Br)s2)oc2ccccc12` was tested, and the Potency was inconclusive [inhibitor, partial curve]. With `CCC(c1nnc(SCC(=O)Nc2nnc(-c3ccccc3)o2)o1)N(C)C` (stereo unspecified) the Potency was “inactive”. `CCN(CCCCN1C(=O)c2ccccc2C1=O)c1ccc2c(c1)C(=O)N(C)C2=O` was tested, and the Potency was inconclusive [inhibitor, full curve]. With `COC(=O)c1ccc2[nH]c(C)c(CN3CCCC3)c(=O)c2c1` the Potency was inconclusive [inhibitor, partial curve]. With `CC(C)[N+]1(C)C2CCC1CC(OC(=O)C(CO)c1ccccc1)C2` (stereo unspecified) the Potency was “inactive”. `CCn1cc(C(=O)O)c(=O)c2cnc(N3CCCC3)nc21` was tested, and the Potency was inconclusive [inhibitor, partial curve]. With `CC(C)(C)NCC(O)COc1ccccc1C(C)(C)C` (stereo unspecified) the Potency was “inactive”. In the case of `CN(C)S(=O)(=O)c1ccc(S(=O)(=O)N(Cc2ccccn2)Cc2ccco2)cc1`, the Potency is reported as “inactive”. `COc1cccc(-c2ccc3ncnc(NCc4cnc(C)cn4)c3c2)c1` was tested, and the Potency was “inactive”. `CCOc1cccc2cc(-c3cn4cc(C)ccc4n3)c(=O)oc12` was tested, and the Potency was inconclusive [inhibitor, partial curve]. For `Cc1ccc(CCNC(=O)c2coc3nc4ccccc4nc23)cc1`, the Potency was inconclusive [inhibitor, partial curve]. With `Cc1ccc(NC(=O)c2cc(-c3ccc(C)o3)nc3ccccc23)nc1` the Potency was inconclusive [inhibitor, partial curve]. With `Cc1nc(-c2cccc(S(=O)(=O)N3CCOCC3)c2)cs1` the activity change, negative = inhibition was inconclusive: -18.1% [inhibitor]. In the case of `Cc1cc(C)c(S(=O)(=O)N(CC(=O)N2CCOCC2)C2CCCCC2)c(C)c1`, the Potency is reported as inconclusive [inhibitor, partial curve]. With `COc1cc(NC(=O)c2ccco2)c(OC)cc1NC(=O)Nc1cccc(Cl)c1` the Potency was inconclusive [inhibitor, single point]. In the case of `Cc1nn2c(N)csc2nc1=O`, the Potency is reported as inconclusive [inhibitor, partial curve]. `CC(=O)OC[C@@H]1O[C@H](CCO/N=C\[C@@H](C)[C@H](OCc2ccccc2)C(C)C)C=C[C@@H]1OC(C)=O` was tested, and the activity change, negative = inhibition was inactive: 0.269% [at 11.5 µM]. In the case of `O=C1OC(=O)c2ccccc21`, the Potency is reported as “inactive”. `CN1CCc2cc3c(c4c2C1CC41CCC(=NO)CC1)OCO3` (stereo unspecified) was tested, and the Potency was inconclusive [inhibitor, partial curve]. `CCOC(=O)N1CCN(C(=O)CS(=O)Cc2nc(-c3ccc(C)cc3)oc2C)CC1` (stereo unspecified) was tested, and the Potency was “inactive”. With `O=C(Nc1ccccc1)N1CCN(c2nc3ccccc3s2)CC1` the Potency was inconclusive [inhibitor, partial curve]. With `N#CCSc1nc2ccc(N3CCCCC3)cc2c(=O)n1Cc1ccccc1` the Potency was inconclusive [inhibitor, partial curve]. For `Cc1cc(C)n(-c2nc3ccccc3nc2N2CCN(C(=O)c3ccc(Cl)cc3)CC2)n1`, the Potency was inconclusive [inhibitor, single point]. For `O=C(NC1CCN(Cc2ccccc2)CC1)c1ccc(-n2c(=O)c(=O)[nH]c3ccccc32)cc1`, the Potency was inconclusive [inhibitor, single point]. In the case of `CO[C@@H]1COC(=O)[C@@H](C)COC(=O)[C@@H](C)NC(=O)C/C=C\[C@@H]1C`, the activity change, negative = inhibition is reported as inactive: 1.41% [at 11.5 µM]. `O=C(COc1ccc(Cl)cc1Cl)Nc1ccccn1` was tested, and the Potency was “inactive”. For `c1coc(C2Nc3cccc4cccc(c34)N2)c1`, the Potency was “inactive”. For `COc1ccc(C(=O)CSc2nnc(-c3cc4ccccc4cc3O)n2Cc2ccco2)cc1`, the Potency was “inactive”. In the case of `COc1ccc(Cl)cc1NC(=O)c1ccco1`, the Potency is reported as “inactive”. In the case of `COC(=O)c1ccc(CSc2nc(C(F)(F)F)c3c(c2C#N)CCC3)o1`, the activity change, negative = inhibition is reported as inconclusive: -16.3% [inhibitor]. With `CC(C)c1nc(SCc2ccccn2)c2c(=O)n(C)c(=O)n(C)c2n1` the Potency was “inactive”. `COc1cc(C)c(CNc2ccc(OC)c(OC)c2)cc1C` was tested, and the Potency was inconclusive [inhibitor, partial curve]. For `Cc1cc(NCCCN2CCOCC2)n2nc(C)c(-c3ccccc3)c2n1`, the Potency was “inactive”. `c1ccc(CCc2cccnc2)nc1` was tested, and the activity change, negative = inhibition was inactive: -1.71% [at 11.5 µM]. For `O=C1C(c2ccccn2)=[N+]([O-])c2ccccc21`, the Potency was inconclusive [inhibitor, partial curve]. In the case of `CC(=O)OC[C@@H]1O[C@@H](O/N=C2/C[C@@H](O)[C@@H](O)[C@@H]3[C@@H]4C(=O)N(Cc5ccc6c(c5)OCO6)C(=O)[C@H]4CC[C@H]23)[C@H](OC(C)=O)[C@H](OC(C)=O)[C@@H]1OC(C)=O`, the activity change, negative = inhibition is reported as inactive: -1.2% [at 11.5 µM]. In the case of `CC1=C(C(=O)OCCOC(C)C)C(c2cc3c(cc2Br)OCO3)C2=C(CCCC2=O)N1` (stereo unspecified), the Potency is reported as inconclusive [inhibitor, partial curve]. `O=C1c2ccccc2C(=O)N1c1ccccc1S(=O)C(F)(F)F` (stereo unspecified) was tested, and the Potency was inconclusive [inhibitor, partial curve]. With `O=c1c(-c2ccc(F)cc2)nc2cnc(Oc3ccccc3)nc2n1C[C@H]1CCCO1` the Potency was inconclusive [fluorescent, partial curve]. `Cc1ccc(/C=C/C2=Cc3c(sc(NC(=O)CSc4n[nH]c(N)n4)c3C#N)C(C)(C)C2)o1` was tested, and the Potency was inconclusive [inhibitor, partial curve]. With `CCCC[C@@H]1C[C@H]1C(NC(=O)c1ccccc1)c1ccc(-c2ccccc2)cc1` (stereo partly specified) the Potency was “inactive”. With `COC(=O)[C@@]1(Cc2ccc(OC)cc2)[C@H]2c3cc(C(=O)N(C)C)n(Cc4ccc(O)c(OC)c4)c3C[C@H]2CN1C(=O)c1ccccc1` the Potency was “inactive”. `Nc1nc2c(c3c1c(=O)oc1ccccc13)CCCCC2` was tested, and the Potency was inconclusive [inhibitor, full curve]. For `COc1ccc(CN2C(=O)c3cccnc3C2Nc2ccc(OC)c(Cl)c2)cc1` (stereo unspecified), the Potency was “inactive”. With `C=CCSC1=N/C(=C\c2cc(OC)c3c(c2)OCO3)C(=O)S1` the activity change, negative = inhibition was inconclusive: -17.9% [inhibitor]. For `CCN(CC)CCN1C(=O)C(=O)/C(=C(/O)c2ccc(OC)c(OC)c2)C1c1ccccn1` (stereo unspecified), the Potency was inconclusive [inhibitor, partial curve]. In the case of `Cn1c(C(C#N)C(=O)c2sc3ccccc3c2Cl)nc2ccccc21` (stereo unspecified), the Potency is reported as inconclusive [inhibitor, single point]. For `COC(=O)c1ccc(CSc2nc(-c3ccccc3)cs2)o1`, the Potency was “inactive”. In the case of `COCc1cc(=O)n2[nH]c(-c3cccc(Br)c3)cc2n1`, the Potency is reported as inconclusive [inhibitor, partial curve]. With `O=C(c1ccc(-n2cnnn2)cc1)N1CCN(C(c2ccccc2)c2ccccc2)CC1` the Potency was “inactive”. With `O=C(O)c1ccc(C(=O)O)c(C(=O)O)c1.[NH-][C@@H]1CCCC[C@@H]1[NH-].[Pt]` the activity change, negative = inhibition was inactive: 0.412% [at 11.5 µM]. In the case of `Cc1ccc(Cl)cc1N1CCN(C(c2ccc(C#N)cc2)c2nnnn2C2CCCC2)CC1` (stereo unspecified), the Potency is reported as “inactive”.
Potency means the concentration at half of the fitted maximal effect; tags describe the fitted curve by direction and shape or compound fluorescence and quenching.
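Wherever activity change, negative = inhibition is given: plate controls were vehicle for no effect and no substrate for full effect.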
